Out of some 150,000 compounds screened, about 540 (0.36%) showed an effect of 50% or more. The list shows a part of the results.
The compounds below were run on Plasmodium falciparum (assay: Primary screen in NF54 nanoGlo assay, in single point, at 2uM, 72h; a lower Z score goes with more inhibition). Conditions: timepoint 72 hour.
Assay type: functional, Erythrocyte

| Structure (SMILES) | % Inhibition [%] | Z score |
| --- | --- | --- |
| CCCCOc1ccc(C(=O)N2CCN(c3nc(CN4CCN(Cc5ccccc5)CC4)cc(=O)[nH]3)CC2)cc1 | -8 | 1.3 |
| CCN(CC)CCN(CC(=O)N1CCCN(c2ccc(-c3ccc(OC)cc3)nn2)CC1)C(=O)c1ccccc1 | -8 | 1.14 |
| N#CC1CCCCC1OC(=O)c1cccc(C2OCCO2)c1 (stereo not drawn) | -3 | 0.35 |
| COc1cc(OC)c(NC(=O)CN2C(=O)CCn3nc(-c4cccn4C)cc32)cc1Cl | -4 | 0.78 |
| CC[C@@](C)(CNC(=O)OC(C)(C)C)C(=O)Nc1cc(OC)ccc1O | 6 | -1 |
| CN(C(=O)OC(C)(C)C)[C@H]1CCN(CC2CCOCC2)C1 | -9 | 0.83 |
| CN(CC(=O)N1CCC(c2ccccc2)=N1)C1Cc2ccccc2C1 | -1 | 0.17 |
| O=C(NCCCOCC1CC1)NC1CCCCCC1CO (stereo not drawn) | 1 | -0.13 |
| CCOC(=O)c1cccnc1N(C)C[C@H]1CCCCO1 | -8 | 0.77 |
| O=C(c1ccc2c(c1)CCC2)N1CCN(CCO)CC1 | -14 | 1.78 |
| O=C(O)C1CCC(=O)N(CCc2cccnc2)C1c1ccc(F)cc1 (stereo not drawn) | -1 | 0.1 |
| CN1CC[C@H](N(C)c2nc(-c3ccccc3)no2)C1=O | -3 | 0.64 |
| O=C1Nc2ccccc2Oc2cc(NC3CCCC3)c(S(=O)(=O)N3CCCC3)cc21 | -9 | 1.33 |
| O=c1ccc(F)cn1Cc1nccn1C(F)F | -12 | 1.22 |
| CCN1CCN(c2c(CN(Cc3ccccc3C(F)(F)F)CC(C)C)c(C)nn2-c2cccc(F)c2)CC1 | 4 | -0.54 |
| O=S(=O)(Nc1cnn([C@H]2CCOC2)c1)c1cc(F)ccc1F | 11 | -1.42 |
| Cc1ccsc1-c1nccn1CC[C@H]1CCCN1C | 8 | -1.37 |
| COCc1nccc(NC(=O)N2CCC(c3ccon3)CC2)n1 | -11 | 2.02 |
| Cc1ccc(OCCCOc2ccc(CO)nc2)cc1C | 36 | -4.1 |
| Cc1oc(C2CCC2)nc1C(=O)NCCCN(C)c1ccccc1 | -14 | 1.8 |
| CCN(CC)CCNC(=O)C1CCN(c2nc3cccnc3s2)CC1 | -6 | 0.54 |

| Structure (SMILES) | % Inhibition [%] | Z score |
| --- | --- | --- |
| O[C@H]1[C@H](NCc2ccccc2)[C@@H](C2CCCCC2)C[C@H]1O | 18 | -2.12 |
| CS(=O)(=O)N(CCN1CCCCC1)C1CN(C(=O)COc2ccccc2)C1 | -5 | 0.63 |
| O=S(=O)(N1CCCCC1)N1[C@@H]2CC[C@H]1C[C@@H](O)C2 | -9 | 1.37 |
| CC[C@](C)(OC)c1noc(-c2cc3c(s2)CCOC3)n1 | -11 | 1.46 |
| O=C(CN1C(=O)c2ccccc2Oc2ncccc21)NCCCO | -14 | 1.48 |
| C=CCOC1CCN(C(=O)CCN2CCOC2=O)CC1 | -4 | 0.57 |
| COC(C(=O)N(C)CC1CCCN1C)c1ccc(O)cc1 (stereo not drawn) | -12 | 2.36 |
| CC[C@@H]1C[C@H]1NC(=O)CS(C)(=O)=O | 18 | -2.08 |
| COc1ccc(C(N)=O)cc1C[C@H]1CCCCO1 | -9 | 1.07 |
| CCc1nc(C)c(C(=O)N2CCC[C@H](c3ccccc3C)C2)o1 | 7 | -0.97 |
| CCc1csc(-c2ccc(N3CCN(C(=O)c4nccc5ccccc45)CC3)nc2)n1 | 8 | -1.3 |
| CC(C)(C)OC(=O)[C@H]1CCCN(c2ncnc(N)c2Cl)C1 | -4 | 0.52 |
| O=C(NCCOCCc1ccccc1)Nc1cccnc1 | -25 | 2.3 |
| CC(C)NS(=O)(=O)NC1(c2nc3ccccc3s2)COC1 | -11 | 1.41 |
| CCc1ccc(NC(=O)[C@H]2CCCN(c3c(-c4ccccc4)c4cc(Cl)ccc4[nH]c3=O)C2)cc1 | -6 | 0.86 |
| Cc1cc(N[C@@H](Cc2ccccc2)C(=O)N2CCOCC2)nc(C2CC2)n1 | 10 | -0.98 |
| Cc1cc(C(=O)NC[C@H]2CCCN2c2ccccc2)no1 | 0 | 0.02 |
| CC(C)O[C@H]1C[C@@H](NC(=O)c2ccc3[nH]c(=O)[nH]c3c2)C1 | -15 | 2.74 |
| CCOCCNC(=O)Nc1ccnn1C[C@@H]1CC=CCC1 | 5 | -0.7 |
| NC(=O)C1CCN(C(=O)c2ccc3nc(-c4ccc(F)cc4)c(-c4ccc(F)cc4)nc3c2)CC1 | 1 | -0.14 |
| C[C@@H](CCc1ccccc1)NC(=O)NCCCC(N)=O | -4 | 0.74 |

| Structure (SMILES) | % Inhibition [%] | Z score |
| --- | --- | --- |
| CCCOc1ccc(N2C(=O)C3ON(c4ccccc4)C(c4ccc(OC(=O)c5ccccc5)c(OC)c4)C3C2=O)cc1 (stereo not drawn) | 1 | -0.25 |
| CC(C)c1noc([C@@H]2CCCCN2C(=O)c2cnc(-c3ccccc3)nc2O)n1 | 0 | -0.01 |
| CNC(=O)CCc1nc(COC)nn1-c1cccc(C)n1 | -6 | 1 |
| Cc1cc(C)c2nonc2c1S(=O)(=O)N(CCOc1ccccc1)C[C@H]1CCCO1 | -16 | 2.11 |
| Cc1ccc(-c2noc(Cn3nc(-c4ccc(Br)cc4)ccc3=O)n2)cc1C | -8 | 1.11 |
| N=C1NC(=O)O[C@@]12CCCc1ccccc12 | 1 | -0.28 |
| CC(C)N1C[C@@H](O)C[C@H]1c1nnc2n1CCN(Cc1cn(C)c3ccccc13)C2 | 5 | -0.81 |
| O=C(NC(C1CC1)C1CC1)c1ccncc1 | 4 | -0.8 |
| O=C1CCc2cc(NC(=O)C(=O)NCCc3ccc4c(c3)OCO4)ccc2N1 | -11 | 2.09 |
| OCCN(CCO)Cc1cc(F)ccc1F | -12 | 2.35 |
| Cc1cn(-c2c(F)cccc2F)nc1C(=O)N1CC[C@](C)(O)C1 | -9 | 0.93 |
| Cc1nccc(NC(=O)C2C3CCC(O3)C2C(F)(F)F)n1 (stereo not drawn) | 2 | -0.26 |
| O=C(Cc1cccnc1)N[C@H]1CCC[C@H]1Cc1ccc(F)cc1 | -3 | 0.53 |
| N#CC1(c2ccccn2)CCCN(CC2CCC3(CCCC3)O2)C1 (stereo not drawn) | -3 | 0.63 |
| FC(F)c1[nH]nc2c1CN(c1nc(CC3CC3)ns1)CC2 | -6 | 1.03 |
| CONC(=O)COc1ccc(Cl)cc1 | 6 | -0.86 |
| CCC(=O)NCc1ccc(-c2noc(CCC3CCCC3)n2)s1 | 10 | -1.19 |
| COC(=O)c1c(NC(=O)c2ccccc2)c2cc(NCc3cc(OC)ccc3F)cnc2n1C[C@H]1CCCO1 | 0 | 0 |
| Cc1cccn2cc(COc3ccccc3C(=O)NCc3ccccn3)nc12 | -12 | 1.61 |
| O=S(=O)(c1ccc2c(c1)OCCCO2)N1CC(c2nc3ccccc3s2)C1 | 4 | -0.9 |
| O=C(c1cc(C2CC2)n[nH]1)N1C[C@@H]2CC[C@H]1CN(Cc1cccnc1)C2 | -9 | 0.89 |

| Structure (SMILES) | % Inhibition [%] | Z score |
| --- | --- | --- |
| C[C@H]1Cc2ccccc2N1Cc1ccoc1C(=O)NCCC1(O)CCC1 | -8 | 1.35 |
| COC(=O)C1C(O)CCCN1C(=O)C1CCC(NC(=O)CC2CCCC2)CC1 (stereo not drawn) | 12 | -1.38 |
| Cc1cc(C)c2[nH]c(C(=O)N[C@H]3C[C@H]4OCC[C@@H]34)c(C)c2c1 | -12 | 1.53 |
| O=C(CCc1ccccc1)N1CCOC2CCCCC21 (stereo not drawn) | -4 | 0.71 |
| CCc1cc(N[C@H](c2nc(C3CC3)no2)C(C)C)ncn1 | 7 | -0.99 |
| CCN1CC2(CCN(Cc3noc(C)n3)CC2)C[C@@H](c2ccccc2)C1=O | -7 | 0.9 |
| CC(C)CNC(=O)C[C@H]1COCCN1C(=O)c1cnc2cccnn12 | 14 | -2.05 |
| Cc1ccc(N(C)C(=O)[C@H]2[C@@H]3C[C@@H]4[C@H]2C(=O)O[C@@H]4C3)cc1 | -9 | 1.04 |
| O=C(NC1CCC(n2cccn2)CC1)[C@@H]1CC=CCC1 (stereo partly drawn) | 1 | -0.09 |
| Cc1nn(C)c(C)c1CNCc1cc2ccc(F)cc2n(CCN2CCCCC2)c1=O | -5 | 1 |
| CCCCCc1ccc(C(=O)N(CCOC)Cc2ccc(OC)c(OS(=O)(=O)c3ccc(F)cc3)c2)cc1 | -12 | 1.28 |
| O=C(N[C@@H]1CCCC[C@H]1NC(=O)C1CCCN(C(=O)c2ccc(Cl)cc2Cl)C1)c1ccc(F)cc1 (stereo partly drawn) | 10 | -1.71 |
| CCC[C@H]1C=CCN1C(=O)c1cccc(CN)c1 | -2 | 0.32 |
| Cn1cncc1CNC1CCC(Cc2ccccc2)C1 (stereo not drawn) | 3 | -0.45 |
| Cc1cccc(-n2nc(C)c(CCC(=O)NCc3ccccc3)c2Oc2ccccc2C)c1 | -25 | 3.6 |
| CS(=O)(=O)N[C@@H](Cc1ccccc1)C1CC1 | -1 | 0.08 |
| Cc1cc(C(=O)N2CCN(C(=O)c3scc(C)c3Cl)[C@H](C)C2)n[nH]1 | 5 | -0.61 |
| Cn1cnn(CCC(=O)N[C@H]2CC2(C)C)c1=O | -8 | 1.13 |
| COc1cc(OC)cc(C(=O)Nc2ccc3c(c2)C(=O)Nc2ccccc2O3)c1 | 29 | -3.28 |
| O=C(Nc1cccnc1)[C@@H]1CCCCN1C(=O)OCc1ccccc1 | 0 | 0.02 |
| CCCN(CCC)c1nc2ccccc2c2nc(C)nn12 | -16 | 1.58 |

— ChEMBL document CHEMBL4888484, “Replenishing the malaria drug discovery pipeline: Screening and hit evaluation of the MMV Hit Generation Library 1 (HGL1) against asexual blood stage Plasmodium falciparum ,using a nano luciferase reporter read-out” (2022)
